These results are taken from the supplement of paper PMC4967469.

The IC50 comes from the fitted curve, where viability falls to half of the control; a fit beyond the top or the lowest dose is shown as a bound at that dose. AUC sums up the same curve from the lowest dose to the 256-fold higher top dose; values near 1 show little effect. An inferred top dose was calculated from the reported fits. Some results are limits rather than exact numbers.

Compound in the assay: CCOc1cc2ncc(C#N)c(Nc3ccc(F)c(Cl)c3)c2cc1NC(=O)/C=C/CN(C)C [EKB-569]
Put plainly: Viability of human cancer cell lines after 72 h of drug (GDSC screen). Particulars: top dose inferred. As for the experimental part:
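Human cancer cell lines in 384-well plates, medium with 10% serum, drug for 72 h over a 256-fold dose range (nine 2-fold or five 4-fold steps up to the top dose). Adherent lines were fixed and stained with the nucleic acid dye Syto60, suspension lines read with resazurin; signal relative to control wells, capped at 0 and 100%. One two-parameter sigmoid per drug and line, fitted in a mixed model over all curves with the slope shared within a line.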
Turning to “LU-135 (small cell lung carcinoma, suspension, top dose 2.5 µM)”, the AUC worked out at 0.912 and the IC50 is above 2.5 µM.
On to “SU-DHL-10 (B-cell lymphoma, suspension, top dose 2.5 µM)”, for which the AUC was found to be 0.584 and the IC50 was determined as 0.249 µM.
Taken in the same sequence, the figures for “NCI-H69 (small cell lung carcinoma, suspension, top dose 2.5 µM)” were 0.982 and above 2.5 µM.
In the case of “NCI-H2347 (lung adenocarcinoma, adherent, top dose 2.5 µM)”, the AUC came out at 0.942 and the IC50 is above 2.5 µM.
“PCI-30 (head and neck, adherent, top dose 2.5 µM)”: the AUC amounted to 0.956 and the IC50 was above 2.5 µM.
Taken in the same sequence, the figures for “TE-4 (oesophagus, adherent, top dose 2.5 µM)” were 0.614 and 0.321 µM.
Turning to “SU-DHL-8 (B-cell lymphoma, suspension, top dose 2.5 µM)”, the AUC is 0.786 and the IC50 was determined as 0.999 µM.
Taken in the same sequence, the figures for “CCRF-CEM (lymphoblastic leukaemia, suspension, top dose 2.5 µM)” were 0.659 and 0.398 µM.
Taken in the same sequence, the figures for “NCI-H526 (small cell lung carcinoma, suspension, top dose 2.5 µM)” were 0.924 and above 2.5 µM.
In the case of “Hs766T (pancreas, adherent, top dose 2.5 µM)”, the AUC was 0.981 and the IC50 was above 2.5 µM.
Taken in the same sequence, the figures for “NCI-H2196 (small cell lung carcinoma, adherent, top dose 2.5 µM)” were 0.972 and above 2.5 µM.
Taken in the same sequence, the figures for “JiyoyeP-2003 (Burkitt lymphoma, suspension, top dose 2.5 µM)” were 0.991 and above 2.5 µM.
Taken in the same sequence, the figures for “MDST8 (large intestine, adherent, top dose 2.5 µM)” were 0.971 and above 2.5 µM.
For the cell line “A101D (melanoma, adherent, top dose 2.5 µM)”, the AUC was 0.981 and the IC50 was above 2.5 µM.
Taken in the same sequence, the figures for “CAL-85-1 (breast, adherent, top dose 2.5 µM)” were 0.518 and 0.178 µM.
Taken in the same sequence, the figures for “TE-11 (oesophagus, adherent, top dose 2.5 µM)” were 0.958 and above 2.5 µM.
“NCI-SNU-16 (stomach, suspension, top dose 2.5 µM)”: the AUC was determined as 0.991 and the half-maximal inhibitory concentration (IC50) was above 2.5 µM.
Regarding “NCI-H1417 (small cell lung carcinoma, suspension, top dose 2.5 µM)”, the AUC turned out to be 0.894 and the half-inhibitory concentration (IC50) was above 2.5 µM.
Taken in the same sequence, the figures for “NCI-H1581 (large cell lung carcinoma, semi-adherent, top dose 2.5 µM)” were 0.986 and above 2.5 µM.
Taken in the same sequence, the figures for “HCE-4 (oesophagus, adherent, top dose 2.5 µM)” were 0.988 and above 2.5 µM.
For the cell line “ATN-1 (T-cell lymphoblastic leukaemia, suspension, top dose 20 µM)”, the AUC was 0.465 and the IC50 was found to be 1.01 µM.
Taken in the same sequence, the figures for “UM-UC-3 (bladder, adherent, top dose 2.5 µM)” were 0.869 and 2.06 µM.
For the cell line “HN (head and neck, adherent, top dose 2.5 µM)”, the AUC worked out at 0.977 and the IC50 is above 2.5 µM.
Regarding “SLVL (B-cell lymphoma, suspension, top dose 2.5 µM)”, the AUC stood at 0.88 and the IC50 was above 2.5 µM.
Taken in the same sequence, the figures for “Daoy (medulloblastoma, adherent, top dose 2.5 µM)” were 0.791 and 1.01 µM.
Taken in the same sequence, the figures for “QIMR-WIL (acute myeloid leukaemia, suspension, top dose 2.5 µM)” were 0.669 and 0.454 µM.
